# Experimental data from PubChem BioAssay AID1347417 (National Center for Advancing Translational Sciences (NCATS), 2020).
# In all, about 120,000 compounds went through this assay and about 5,300 (4.4%) were called active. The shares of active, inactive and inconclusive entries below differ from those in the screen. Calls come from the whole dose curve; as a rule, active = well fitted inhibition curve with a large enough effect; inconclusive = small, poorly fitted or top-dose-only effect; inactive = no such curve, though single readings can be large or run the other way. Potencies of inconclusive entries are doubtful fits and often do not repeat.
# Test: qHTS Primary assay for Inhibitors of Plasmodium falciparum Dd2 growth in vitro; note: nearly all actives have a fitted effect of over 65% in size;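 for activity, negative = inhibition: plate controls were DMSO vehicle for no effect and reference drug for full effect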
# Settings: P. falciparum Dd2 growth, SYBR Green, 72 h; activity, negative = inhibition: at 28.9 µM (top of the series) unless noted; series mostly up to 28.9 µM
# Method in brief: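 Readout: SYBR Green fluorescence, 485 nm excitation, 535 nm emission, after ~16 h lysis at 37C. Before that, Dd2-infected red cells (2.5% hematocrit) grew 72 h with compound, 29 uM top final concentration.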
# Potency is the fitted concentration of half-maximal effect; tags give direction and shape of the fitted curve.
Structure (SMILES),"activity, negative = inhibition",outcome,Potency
CC(=O)NCC(=O)N1CCC2(COc3ncccc3[S+](=O)([O-])N2)C1 (configuration not stated),inactive: 20.2%,,
Cc1noc(C)c1S(=O)(=O)N1CCC(C(=O)N2CCCC2c2nc(C3CCOCC3)no2)CC1 (configuration not stated),inactive: -12%,,
Cc1cnc(-c2ccccc2)n1CCNC(=O)c1cccn1C,,inactive,
O=C(Nc1cc(Cl)cc(Cl)c1)c1cc(S(=O)(=O)NC2CCCC2)ccc1F,,,"inconclusive: 10 µM [inhibitor, single point]"
COC(=O)c1ccc(CN2C(=O)[C@@H]3C[C@@H](O)CN3C3(CN(Cc4cccc(F)c4)C3)C2=O)cc1,,,"inconclusive: 12.6 µM [inhibitor, single point]"
O=C1C[C@H]2CC[C@@H](CN1)N2C(=O)c1csc2nc(-c3ccccc3Cl)cn12,,,"inconclusive: 3.16 µM [inhibitor, single point]"
Cc1cc(C(=O)N2CCC3(CCC(=O)N(CCCn4ccnc4)C3)CC2)c(C)o1,inactive: 5.71%,,
Cc1ccc(C2Cn3nnc(C(=O)N4CCC(C(=O)NCc5cc(F)ccc5F)CC4)c3CO2)cc1 (configuration not stated),inactive: 17.3%,,
O[C@H]1CCCC[C@@H]1NC1CCN(c2nc3ccc(Cl)cc3s2)CC1,,,active: 3.98 µM
COC(=O)CCCNC(=O)C1c2ccccc2C(=O)N(c2ccccc2)C12CCCCC2 (configuration not stated),,,"inconclusive: 11.2 µM [inhibitor, single point]"
CCc1nc(NC(c2ccccc2)c2ccco2)c2cnn(C)c2n1 (configuration not stated),,,"inconclusive: 14.1 µM [inhibitor, partial curve, poor fit]"
CC1(C(=O)NCc2cccnc2)CCCc2cnc(NCc3ccccc3)nc21 (configuration not stated),,inactive [at 44.1 µM],
O=C(N[C@@H]1CCN(Cc2nc3c(s2)CCCC3)C[C@H]1O)c1ccccn1,inactive: 25.5%,,
CN(c1ccc(F)cc1)S(=O)(=O)N1CCCC(C(=O)NCc2ccccc2Cl)C1 (configuration not stated),,,"inconclusive: 20 µM [inhibitor, single point]"
Cc1ccoc1C(=O)N1CCC(Oc2ccccc2F)(C(=O)O)CC1,inactive: -12.2%,,
COc1ccc(C(=O)N2CCCCCCNC(=O)[C@@H]3C[C@@H](c4nc(-c5cccnc5)no4)C[C@@H]32)cn1,,,"inconclusive: 17.8 µM [inhibitor, single point]"
O=C(c1ccc(F)cc1F)N1CCC2(CC1)N=C(c1ccc(Cl)cc1)NO2,,inactive,
CC(C)c1nc2c(c(-c3ccc(O)cc3)n1)CN(C(=O)Nc1ccc(Cl)cc1)CC2,,,active: 11.2 µM
COc1ccc(CN2C[C@H]3CN(C4CCOCC4)C[C@@]3(C(=O)O)C2)cc1O,inactive: 5.95%,,
CCOc1ccccc1NC(=O)Cn1c(=O)c(-c2noc(C)n2)c2n(c1=O)CCCCC2,,,"inconclusive: 6.31 µM [inhibitor, single point]"
COc1ccc(-c2nc3ccc(-c4ccc5c(c4)OCO5)cc3o2)c(OC)c1OC,inactive: -24.9%,,
CC(C)NC(=O)c1ccccc1OCC1CCCN(Cc2ccc(Br)o2)C1 (configuration not stated),,,"inconclusive: 12.6 µM [inhibitor, single point]"
CCN(CC)Cc1cnc2c(C(=O)Nc3ccc(OC)c(OC)c3)cnn2c1,,,"inconclusive: 11.2 µM [inhibitor, single point]"

Structure (SMILES),"activity, negative = inhibition",outcome,Potency
COc1ccc(C(=O)N2CCOCC3(CN(Cc4cc(F)ccc4F)C3)C2)cc1OC,,,"inconclusive: 31.6 µM [inhibitor, single point]"
CCOCc1cc(CN2CCN(c3cccc(C(F)(F)F)c3)CC2)c(O)c2ncccc12,,,active: 2.82 µM
O=C1CCN(C(=O)[C@@H]2CCCN2Cc2ccc(F)cc2F)CCCCCCN1,,,"inconclusive: 8.91 µM [inhibitor, partial curve]"
COc1cccc(-n2c(SCc3cccc(C)c3)nc3c([nH]c4ccccc43)c2=O)c1,,,active: 10 µM
Cn1cc(-c2cccc(O)c2)c2nc(COc3ccc(Cl)cc3)cn2c1=O,,,"inconclusive: 3.55 µM [inhibitor, full curve, poor fit]"
C#CCN(C)Cc1nc(C2(O)CCN(CC3CCCCC3)CC2)cs1,,,"inconclusive: 20 µM [inhibitor, single point]"
CN(C)C[C@@H]1CN(c2ccncn2)C[C@H]1NC(=O)CC1CCCCC1,,,"inconclusive: 3.98 µM [inhibitor, partial curve, poor fit]"
COc1ccc(C(=O)c2cn(Cc3ccccc3)c3ccccc3c2=O)cc1OC,,,"inconclusive: 20 µM [inhibitor, partial curve, poor fit]"
COCCC1(NS(=O)(=O)c2ccccc2)CCN(S(C)(=O)=O)CC1,,,"inconclusive: 4.47 µM [inhibitor, partial curve, poor fit]"
O=C(NCCc1nc2ccccc2n1Cc1ccccc1F)c1ccc(F)cc1,,,"inconclusive: 17.8 µM [inhibitor, single point]"
Cc1cnn(C2(C(=O)O)CCN(C(=O)c3ncoc3C)CC2)c1,inactive: -5.67%,,
O=c1n(-c2ccc([N+](=O)[O-])cc2)nc2n1CCN(Cc1ccc(F)cc1)C2,inactive: -0.239%,,
O=C(Nc1ccccc1)N[C@H]1[C@H](O)[C@@H](N2CCN(c3ccccc3)CC2)[C@@H]2OC[C@H]1O2,,inactive [at 44.1 µM],
CC(C)(C)C(=O)Nc1cnc(-c2cccnc2)nc1,,inactive,
O=C(NCCCN1CCN(c2ccccc2)CC1)c1sc2ncccc2c1-n1cccc1,,,"inconclusive: 10 µM [inhibitor, single point]"
CCc1ccc(CN2CCCC23Cc2ccccc2CNC3=O)s1 (configuration not stated),,,"inconclusive: 15.8 µM [inhibitor, partial curve, poor fit]"
CC(C)NC(=O)C1CCC(=O)N1C1CCN(C(=O)CCC2CCCC2)CC1 (configuration not stated),inactive: 14.6%,,
COc1ccc(CCC(=O)N2CCN(C(=O)c3nnn4c3COC(c3ccc(C)cc3)C4)CC2)cc1 (configuration not stated),,,"inconclusive: 3.98 µM [inhibitor, single point]"
CC1CCCCN1c1cc2c(cc1F)c(=O)c(S(=O)(=O)c1ccccc1)cn2Cc1ccccc1 (configuration not stated),,,"inconclusive: 10 µM [inhibitor, single point]"
O=C(Cn1c(-c2cccs2)cc2cc(F)ccc21)NCCc1ccc(Cl)cc1,,,"inconclusive: 15.8 µM [inhibitor, single point]"
CS(=O)(=O)NC[C@H]1OC[C@@H](NCc2ccccn2)[C@@H]1O,inactive: -14.4% [at 44.1 µM],,
Cc1c(Cl)cccc1NC(=O)C(=O)NCCc1csc2nc(-c3ccccc3F)nn12,,,"inconclusive: 12.6 µM [inhibitor, partial curve]"
Cc1nc(C)c(CN2CCOC[C@H](Oc3cnccn3)C2)s1,inactive: 2.49% [at 44.1 µM],,

Structure (SMILES),"activity, negative = inhibition",outcome,Potency
CCN1CCN(CCCNC(=O)Cn2c(-c3cccs3)cc3cc(Cl)ccc32)CC1,,,active: 11.2 µM
Cn1nc(C2CCCC2)cc1[C@H]1CN2CC[C@H]1C[C@@H]2CNC(=O)c1ccc2c(c1)OCO2,,,"inconclusive: 14.1 µM [inhibitor, partial curve, poor fit]"
CN(Cc1ccccc1)C1CCOC2(CCN(C(=O)CCc3nc4ccccc4[nH]3)CC2)C1 (configuration not stated),,,"inconclusive: 8.91 µM [inhibitor, single point]"
Cc1ccc(Cl)cc1N1CCN(C(=O)c2ccc3c(Cl)c4c(nc3c2)CCCC4)CC1,,,"inconclusive: 0.316 µM [inhibitor, full curve, poor fit]"
CCOC(=O)CCNC(=O)N1CCCC(c2nc(-c3cccnc3)no2)CCNC(=O)CC1 (configuration not stated),inactive: -3.37%,,
CCn1cc(-c2ccc(C)cc2)cc1C(=O)NC(C)c1ccccn1 (configuration not stated),,,"inconclusive: 17.8 µM [inhibitor, single point]"
CN(Cc1ccccc1)C1CCc2ccccc21 (configuration not stated),inactive: -16.9% [at 44.1 µM],,
COc1cccc(-c2nc(CS(=O)(=O)CC(=O)N3CCN(c4ccccc4)CC3)c(C)o2)c1,,,"inconclusive: 20 µM [inhibitor, single point]"
O=C(NCc1ccccc1)c1cnc2n1CCN(Cc1c[nH]c3ccccc13)CC2,,inactive [at 44.1 µM],
FC(F)Oc1cccc(CNC2CCC3(CCNCC3)CC2)c1,,,"inconclusive: 20 µM [inhibitor, single point]"
Cc1ccc(O)c(NC(=O)c2cc(-c3ccc(F)cc3)no2)c1,,,"inconclusive: 12.6 µM [inhibitor, single point]"
COc1ccc(-n2nc3c(N4CCC(C(=O)N5CCC(C)CC5)CC4)nnc(C)c3c2C)cc1,,,"inconclusive: 8.91 µM [inhibitor, single point]"
CCc1ccc(NC(=O)C(=O)NCC(c2ccc3c(c2)OCO3)N2CCN(C)CC2)cc1 (configuration not stated),,,"inconclusive: 10 µM [inhibitor, single point]"
Cc1ccc(OCC(=O)NCC2(N3CCN(C)CC3)CCCCC2)cc1,,,"inconclusive: 3.16 µM [inhibitor, full curve, poor fit]"
Oc1cc(-c2cccc(Cl)c2)cc2c1OCCN(Cc1noc(C3CC3)n1)C2,,,"inconclusive: 12.6 µM [inhibitor, partial curve, poor fit]"
O=C1NN=C(c2ccccn2)C12CCN([S+](=O)([O-])c1cccc(C(F)(F)F)c1)CC2,,,"inconclusive: 7.94 µM [inhibitor, single point]"
CCN(CC)S(=O)(=O)c1ccc2c(c1)nc(CN(C)C(=O)Nc1ccc(C)c(Cl)c1)n2C,,,"inconclusive: 12.6 µM [inhibitor, single point]"
CCc1nc(C)c(C(=O)N2CCn3nc(C(O)Cc4ccccc4)cc3C2)o1 (configuration not stated),inactive: 5.19%,,
CC(=O)c1cccc(NS(=O)(=O)c2c(C(=O)N3CCCCCC3)c(C)n(C)c2C)c1,,,"inconclusive: 11.2 µM [inhibitor, partial curve, poor fit]"
CCN1CCCC(c2nc3ccc(F)cc3c(=O)[nH]2)C1 (configuration not stated),,,"inconclusive: 0.631 µM [inhibitor, full curve, poor fit]"
Cc1noc2c(-c3cccnc3NC(C)C)cc(-c3ccccc3)nc12,,,"inconclusive: 2.82 µM [inhibitor, partial curve, poor fit]"
